# Measurements published in PubChem BioAssay AID1030 (National Center for Advancing Translational Sciences (NCATS), 2008).
# The campaign covered roughly 220,000 compounds. About 16,000 (7.3%) were called active. This list was built around the results that the source calls inconclusive (neither active nor inactive); the mix of calls is not that of the screen. Calls come from the whole dose curve; as a rule, active = well fitted inhibition curve with a large enough effect (not every such curve was filed as active); inconclusive = small, poorly fitted or top-dose-only effect, or another doubt; inactive = no such curve, though single readings can be large or run the other way. Potencies of inconclusive entries are left out as doubtful fits.
# Molecular target: Aldehyde dehydrogenase 1A1 (Homo sapiens) (UniProt P00352)
# Sequence of UniProt P00352 (P00352 whole entry, looked up): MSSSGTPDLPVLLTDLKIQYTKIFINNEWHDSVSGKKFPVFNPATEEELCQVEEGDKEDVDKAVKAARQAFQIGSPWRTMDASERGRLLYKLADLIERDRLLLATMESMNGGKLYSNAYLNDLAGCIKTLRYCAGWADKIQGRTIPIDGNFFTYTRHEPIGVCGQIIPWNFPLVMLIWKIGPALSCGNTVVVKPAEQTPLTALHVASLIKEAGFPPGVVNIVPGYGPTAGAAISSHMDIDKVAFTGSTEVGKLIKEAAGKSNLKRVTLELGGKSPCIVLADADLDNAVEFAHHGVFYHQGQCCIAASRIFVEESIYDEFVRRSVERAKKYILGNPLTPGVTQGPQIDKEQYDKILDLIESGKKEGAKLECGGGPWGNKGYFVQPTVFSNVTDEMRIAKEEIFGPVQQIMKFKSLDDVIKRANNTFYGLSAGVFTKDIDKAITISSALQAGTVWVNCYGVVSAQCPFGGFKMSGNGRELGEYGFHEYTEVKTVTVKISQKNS
# Assay: qHTS Assay for Inhibitors of Aldehyde Dehydrogenase 1 (ALDH1A1)
# Settings: Purified ALDH1A1, NADH fluorescence, propionaldehyde substrate; series mostly up to 75.3 µM
# Potency is the fitted concentration of half-maximal effect; tags give direction and shape of the fitted curve.
row,SMILES,Potency
1,S=c1[nH]nc(-c2ccco2)n1/N=C/C=C/c1ccccc1,"inconclusive [inhibitor, single point]"
2,c1csc(-c2ccnc3ncnn23)c1,"inconclusive [inhibitor, partial curve]"
3,CCCCCCNC(=O)CCCCCNS(=O)(=O)c1ccc(OC)cc1,"inconclusive [inhibitor, single point]"
4,Cc1ccccc1N1C(=O)CSC1=C(C#N)C#N,active: 3.55 µM
5,Cc1cc(/C=N/n2cnnc2)c(C)n1-c1ccc(OCc2ccc(F)cc2)cc1,"inconclusive [inhibitor, single point]"
6,CCCCCCCCCCCCC1CO1 (stereo unspecified),inactive
7,O=S(=O)(c1ccccc1)c1nc(-c2ccco2)oc1Nc1ccccc1,"inconclusive [inhibitor, single point]"
8,c1ccc2c(c1)[nH]c1c(N3CCC4(CC3)OCCO4)ncnc12,"inconclusive [inhibitor, single point]"
9,O=C(COC(=O)CCNS(=O)(=O)c1ccc(Cl)cc1)NCc1ccco1,"inconclusive [inhibitor, partial curve]"
10,O=C(N/N=C1\C2CN3CCN(C2)CC1(c1ccccc1)C3)Nc1ccccc1,inactive
11,CCC(C)c1ccc(NC(=S)NC2CCN(Cc3ccccc3)CC2)cc1 (stereo unspecified),active: 7.08 µM
12,COCCNC(=S)N1CCC(c2nc(-c3ccc(N(C)C)cc3)no2)CC1,"inconclusive [inhibitor, single point]"
13,Cc1cnc(CNc2cc(-c3cccnc3)ncn2)cn1,inactive
14,CCC1SC2=NC(C)=C(C(=O)OCCOC)C(c3ccc(C(=O)OC)cc3)N2C1=O (stereo unspecified),"inconclusive [inhibitor, single point]"
15,O=C(c1cccc(Cl)c1)N1CCCC(c2ccc(Cl)cc2)=N1,"inconclusive [inhibitor, single point]"
16,Cc1cc(C(=O)COC(=O)CC2Sc3ccccc3NC2=O)c(C)n1-c1ccc(Br)cc1 (stereo unspecified),active: 11.9 µM
17,O=C(CSc1nc2ccccc2c(=O)[nH]1)N1CCN(S(=O)(=O)c2ccccc2)CC1,inactive
18,O=C(CNC(=S)N(CCCN1CCOCC1)Cc1cccs1)N1CCCCCC1,"inconclusive [inhibitor, single point]"
19,O=C(NCCNC(=O)c1cc(OCC(F)(F)F)ccc1OCC(F)(F)F)Nc1cccc(C(F)(F)F)c1,inactive
20,CC(C)=CCN1CCN(Cc2ccc(Oc3ncccn3)cc2)CC1CCO (stereo unspecified),inactive
21,C(=C/c1nccc2c1[nH]c1ccccc12)/c1ccc2c(c1)OCO2,"inconclusive [inhibitor, full curve]"
22,O=S(=O)(c1ccccc1)N1CCN(Cc2ccccc2C(F)(F)F)CC1,"inconclusive [inhibitor, single point]"
23,Cc1nnc(N/N=C/c2ccc([N+](=O)[O-])cc2)n1N,"inconclusive [inhibitor, single point]"

row,SMILES,Potency
1,Cc1cc2n(n1)C(c1ccc3c(c1)OCO3)Nc1ccccc1-2 (stereo unspecified),"inconclusive [inhibitor, single point]"
2,COc1ccc(-c2occ(C(=O)O)c2C(=O)O)cc1,"inconclusive [inhibitor, partial curve]"
3,O=C(CSc1n[nH]c(=O)[nH]c1=O)c1ccccc1,"inconclusive [inhibitor, single point]"
4,Cc1ccccc1CS(=O)(=O)CCC(=O)N1CCN(c2ccc(N3CCOCC3)nn2)CC1,"inconclusive [inhibitor, partial curve]"
5,NNC(=O)c1sc2cc(C(F)(F)F)cnc2c1-c1cccs1,active: 0.199 µM
6,Cc1cccn2c(=O)c(C=Nc3c(C)n(C)n(-c4ccccc4)c3=O)c(N3CCCC3)nc12,"inconclusive [inhibitor, single point]"
7,COc1ccccc1NC(C#N)c1ccccc1OCc1ccccc1 (stereo unspecified),active: 17.8 µM
8,Cc1ccc(-n2ncc3c(NCc4ccco4)ncnc32)c(C)c1,inactive
9,Cn1c(C(=O)N2CCN(C(=O)c3ccco3)CC2)cc2c(=O)n(C)c3ccccc3c21,active: 20 µM
10,O=C(COc1cnc2ccccc2n1)NCCC1=CCCCC1,active: 11.2 µM
11,CN(C)S(=O)(=O)c1ccc2oc(SCC(=O)NCC(F)(F)F)nc2c1,"inconclusive [inhibitor, partial curve, poor fit]"
12,O=C(CSc1nnc(-c2ccco2)o1)c1ccc(O)cc1O,"inconclusive [inhibitor, partial curve]"
13,Cc1ccc(S(=O)(=O)N2CCC(=O)N(C(COCc3ccc(Cl)cc3)C(C)C)CC2)cc1 (stereo unspecified),"inconclusive [inhibitor, partial curve]"
14,C=CCn1c(SCC(=O)Nc2cccc(C(=O)OC)c2)nnc1C(C)NC(=O)c1cccs1 (stereo unspecified),"inconclusive [inhibitor, single point]"
15,O=C1[C@@H]2C(c3cccnc3)=NO[C@@H]2C(=O)N1c1ccc(Cl)cc1Cl,active: 3.55 µM
16,Cc1ccc(C2C3=C(CCCC3=O)Nc3nc(SCC(=O)NCc4ccco4)[nH]c(=O)c32)cc1 (stereo unspecified),"inconclusive [inhibitor, partial curve]"
17,O=C(NCc1ccccn1)C(=O)NCC(c1ccco1)N1CCN(c2ccc(F)cc2)CC1 (stereo unspecified),"inconclusive [inhibitor, single point]"
18,Fc1cccc(NC(=S)Nc2cccnc2)c1,inactive
19,CCC(=O)NC(=S)Nc1ccc(NC(=O)c2ccco2)cc1,inactive
20,Cc1ccc(N(C)C(=O)N2CCN(S(=O)(=O)c3ccc4ccccc4c3)CC2)cc1,"inconclusive [inhibitor, single point]"
21,Cc1ccccc1OCCC(=O)Nc1cccc(S(=O)(=O)Nc2ccccc2Cl)c1,inactive
22,CCC(C)NC(=O)COc1ccc(S(=O)(=O)N2CCOCC2)cc1 (stereo unspecified),active: 5.01 µM
23,O=C(NC(C(=O)N1CCCC1C(=O)O)=C1CCCCC1)c1ccccc1 (stereo unspecified),"inconclusive [inhibitor, single point]"
